According to PubChem BioAssay AID1508624 (National Center for Advancing Translational Sciences (NCATS), 2021):
The whole screen tested about 48,000 compounds, of which about 120 (0.25%) were called active. Inconclusive results, whose numbers are uncertain, are shown with a selection of clear calls. The call rests on the fitted dose curve; in most records, active means well fitted activation curve with a large enough effect; inconclusive means small, poorly fitted or top-dose-only effect, or another doubt; inactive means no such curve, though single readings can be large or run the other way. Potencies of inconclusive entries are doubtful fits and often do not repeat.

assay: Primary qHTS for Identification of Small Molecule Activators of Huntingtin-Antisense Promoter Activity; conditions: HEK293 HTT-AS promoter firefly luciferase reporter, 24 h; activity change, positive = activation: at 57.5 µM (top of the series), percent change from vehicle, -100% = no light unless noted; further: nearly all actives have a fitted effect of over 55% in size
Method in brief: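 HEK293 cells carrying firefly luciferase reporters were seeded at 2,500 per well in Opti-MEM and cultured for 24 h. They were then treated with compounds at up to 57.5 uM final for 24 h at 37 degrees C before Dual-Glo luminescence readout.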
Potency means the concentration at half of the fitted maximal effect; tags describe the fitted curve by direction and shape.

SMILES	Potency	activity change, positive = activation
Fc1ccc(Nc2ncnc3c2nc2n3CCCCC2)c(F)c1	inconclusive: 1.41 µM [activator, single point]	
CCOc1ccc(-c2oc3ccc(C)cc3c(=O)c2O)cc1	inconclusive: 12.6 µM [activator, partial curve]	
Cc1nc2cc(C(=O)O)ccc2n1-c1ccc(C(C)C)cc1	inconclusive: 14.1 µM [activator, partial curve]	
Cc1cccc(C2C=C(c3ccc(F)cc3)Nc3nc4ccccc4n32)c1 (configuration not stated)	inconclusive: 2.82 µM [activator, full curve]	
O=C(Nc1nc2cccc(-c3ccc(CN4CCS(=O)(=O)CC4)cc3)n2n1)C1CC1	active: 24.3 µM	
CCN1CCN(c2cc(C)c3cc(NC(=O)/C=C/c4cccc(Cl)c4)ccc3n2)CC1	inactive	
COc1ccc2ccc(=O)oc2c1CC=C(C)C	inactive	
Cc1[nH]c2ccc(C(=O)Nc3ccc(F)cc3)cc2c1C	inconclusive: 2.82 µM [activator, full curve]	
CCCCC(=O)Nc1cc(-c2nc3cccnc3s2)ccc1C	inconclusive: 22.4 µM [activator, single point]	
CC(C)=CC[C@@H](O)C1=CC(=O)c2c(O)ccc(O)c2C1=O	inactive	
CCOC(=O)C1CCCN(C(=O)Cn2c(=O)cc(C)c3c(C)nn(C)c32)C1 (configuration not stated)	inactive	
Cc1ccc(-n2ncc3c(NCc4ccccc4)ncnc32)cc1C	inconclusive: 1.58 µM [activator, partial curve, poor fit]	
CSc1cccc(NC(=O)c2ccc3c(c2)CCCN3S(C)(=O)=O)c1	inconclusive: 1.58 µM [activator, partial curve, poor fit]	
CCCCCCn1c(/C=C/c2ccccc2)nc2ccccc21	inconclusive: 6.31 µM [activator, single point]	
Cc1ccc(/C=C/C(=O)Nc2ccc(Cl)cc2Cl)cc1	inconclusive: 2.24 µM [activator, full curve, poor fit]	
COc1ccc(Oc2ncnc3c2oc2ccccc23)cc1	inconclusive: 2 µM [activator, full curve, poor fit]	
COc1ccc(-c2nc3sc(CCNC(=O)c4ccc(C(C)(C)C)cc4)c(C)n3n2)cc1	inconclusive: 1.78 µM [activator, partial curve, poor fit]	
CN(C)c1ccc(-c2nc3ccccn3c2Nc2ccc3c(c2)OCCO3)cc1	inconclusive: 1.26 µM [activator, partial curve, poor fit]	
COc1cccc(NC(=O)CSc2nnc(NC(=O)NC3CCCCC3)s2)c1	inconclusive: 10 µM [activator, partial curve]	
COc1ccc(NC(=O)c2oc3ccc4c(c3c2C)C(=O)CC(C)(C)O4)cc1OC	inconclusive: 1.78 µM [activator, full curve, poor fit]	
O=c1cc(-c2ccccc2)oc2cc(O)c(O)c(O)c12	inconclusive: 21.7 µM [activator, partial curve]	
COc1ccc(-c2noc(-c3cc(C(C)C)[nH]n3)n2)cc1	inconclusive: 1.78 µM [activator, full curve, poor fit]	
Cc1ccc(-c2cc(NC(=O)COc3c(C)cc(C)cc3C)on2)cc1	inconclusive: 17.8 µM [activator, partial curve]	

SMILES	Potency	activity change, positive = activation
CCCN1CCCc2cc(CN(CCCN3CCOCC3)C(=O)Nc3ccc(OCC)cc3)ccc21	inactive	
Cc1ccc2c(c1)sc1nc(=O)n(-c3cccc(Cl)c3)c(=O)n12	inconclusive: 1.58 µM [activator, full curve, poor fit]	
CCCCc1nn2c(C)c(-c3ccc(OCC)cc3)nc2s1	inactive	
O=C(Cn1ncc2c3ccccc3n(Cc3cccc(Cl)c3)c2c1=O)N1CCCCC1		inconclusive: -88% [activator]
CC1=C(C(=O)OC2CCCC2)C(c2cccc(Cl)c2Cl)CC(=O)N1 (configuration not stated)	inactive	
CCC1Oc2ccccc2N(CC(=O)NCc2ccc(C)cc2)C1=O (configuration not stated)	inconclusive: 17.8 µM [activator, partial curve, poor fit]	
CC(=O)c1ccc(NC(=O)COc2ccccc2-c2nc(C)no2)cc1	inactive	
N#Cc1ccc(NC(=O)COCc2cc(-c3ccc(F)cc3)on2)cc1		inconclusive: 27.7% [activator]
Cc1ccc(Nc2c(-c3cccc(Cl)c3)nc3cccc(C)n23)cc1	inactive	
O=C(/C=C/c1ccccc1)Nc1cc(-c2nc3ccccc3o2)ccc1Cl	inconclusive: 14.1 µM [activator, partial curve, poor fit]	
COc1ccc(/C=C\c2onc(C)c2S(=O)(=O)N2CCC(C(=O)Nc3ccc(C)c(F)c3)CC2)cc1	inactive	
O=C(NC1CCNCC1)c1[nH]ncc1NC(=O)c1c(Cl)cccc1Cl	inconclusive: 1.22 µM [activator, partial curve]	
Cc1ccc(-c2nc3cc(Cl)ccc3o2)cc1NC(=O)COc1ccc(F)cc1		inconclusive: -61.4% [activator]
CC1=C(C(=O)OC2CCCC2)C(c2ccccc2Cl)CC(=O)N1 (configuration not stated)	inactive	
COC(=O)c1c(NC(=O)COc2cc(C)ccc2C(C)C)sc2c1CCC(C)C2 (configuration not stated)		inconclusive: -43.4% [activator]
COc1ccc(NC(=O)Cn2c(SCc3ccc(C)cc3)nc3cccnc32)c(OC)c1	inconclusive: 7.08 µM [activator, single point]	
CCOc1ccc(CNS(=O)(=O)c2cc(-c3cc(C)no3)ccc2C)cc1OC	inactive	
Cn1c(=O)[nH]c2cc(-c3noc(-c4ccc(F)cc4)n3)ccc21	inconclusive: 22.4 µM [activator, partial curve, poor fit]	
CCOc1ccc(C(=O)N2CCN(Cc3cc(=O)n4nc(-c5ccccc5Cl)sc4n3)CC2)cc1	inactive	
CC(C)Cn1c(/C=C/c2ccc(F)cc2)nc2ccccc21	inconclusive: 3.98 µM [activator, full curve, poor fit]	
COc1ccccc1N1CCN(C(CNC(=O)C(=O)NCCc2ccccc2)c2cccnc2)CC1 (configuration not stated)	inactive	
CCC(C(=O)Nc1ccc(C(C)=O)cc1)n1c(C)c2cnn(-c3ccccc3)c(=O)c2c1C (configuration not stated)	inactive	
CCc1cccc(NCc2ccccc2-c2nnc(-c3ccccc3Cl)o2)c1	inconclusive: 15.8 µM [activator, single point]	

SMILES	Potency	activity change, positive = activation
O=C(Nc1ccc(F)cc1F)c1ccc2c(=O)n3c(nc2c1)CCCCC3	inconclusive: 14.1 µM [activator, partial curve]	
COc1cccc(-n2c(=O)c3sc4ccccc4c3n(CC(=O)Nc3cccc(Cl)c3)c2=O)c1	inactive	
Cc1ccc(Cn2ccc(NC(=O)c3cc(-c4ccc(Cl)c(Cl)c4)on3)n2)cc1	inconclusive: 0.158 µM [activator, partial curve, poor fit]	
Cc1nc(-c2ccc(F)cc2)sc1CCNC(=O)c1ccco1	inconclusive: 3.98 µM [activator, full curve]	
COc1cc(OC)cc(C(=O)Nc2c(C(=O)Nc3ccc(F)cc3)oc3ccccc23)c1	inconclusive: 3.16 µM [activator, full curve, poor fit]	
Cc1ccc(-n2ncc3c(NCCCc4ccccc4)ncnc32)cc1C		inconclusive: -4.77% [activator]
COc1ccc(CNC(=O)CCCc2cn(C)c3ccccc23)c(OC)c1	inactive	
O=C(Cc1csc2ccccc12)NCc1ccccc1F	inconclusive: 10 µM [activator, partial curve]	
CCc1cccc(-n2nnc(-c3nc(-c4cccs4)no3)c2N)c1	inconclusive: 3.55 µM [activator, full curve]	
Clc1ccc2nc(-c3ccc(Br)o3)c(Nc3ccc4c(c3)OCCO4)n2c1		inconclusive: 22.9% [activator]
O=C(CC12CC3CC(CC(C3)C1)C2)Nc1cccc2nc(NCCNCCO)ccc12	inactive	
CCOC(=O)c1ccc(NC(=O)c2cc(=O)c3cc(CC)ccc3o2)cc1	inconclusive: 0.631 µM [activator, full curve, poor fit]	
NC(=O)CSc1nc2ccc(NC(=O)COc3ccccc3)cc2s1	inconclusive: 0.708 µM [activator, full curve]	
CC1CCC(NC(=O)c2ccc3c(c2)N(Cc2ccccc2F)C(=O)c2ccccc2S3)CC1 (configuration not stated)	inconclusive: 12.6 µM [activator, partial curve, poor fit]	
CCOC(=O)c1c(S(=O)(=O)N2CCC(C(=O)Nc3ccc(C)cn3)CC2)c(C)n(C)c1C		inconclusive: 20.3% [activator]
Clc1ccccc1-c1nc(-c2ccncc2)no1	inconclusive: 39.8 µM [activator, single point]	
COc1ccc(OC)c(NC(=O)Nc2cccc(OCc3cc(=O)n4cc(C)ccc4n3)c2)c1	inconclusive: 1.78 µM [activator, full curve, poor fit]	
CC1(C)CC(=O)c2cc(C(=O)Nc3ccc(Cl)cc3)c(=O)[nH]c2C1	inconclusive: 1.78 µM [activator, full curve, poor fit]	
C[C@H]1O[C@@H](n2cc(F)c(=O)[nH]c2=O)[C@H](O)[C@@H]1O	inactive	
CCc1noc(-c2ccc(N3CCCCC3)c([N+](=O)[O-])c2)n1	inconclusive: 1.78 µM [activator, full curve, poor fit]	
Cc1ccn2c(Nc3ccc4c(c3)OCCO4)c(-c3ccc(C)s3)nc2c1	inconclusive: 1 µM [activator, full curve, poor fit]	
